The results in this text go back to article PMC4336329 (PLoS ONE, 2015).

In all, about 310,000 compounds went through this assay and about 2,200 (0.71%) showed an effect of 50% or more. The effect is printed as a negative number. This is one part of the list.

The assay deals with human ether-à-go-go-related gene (hERG) potassium channel (human, UniProt Q12809). Put plainly: primary screen, population patch clamp on CHO cells stably expressing hERG.
Sequence of human ether-à-go-go-related gene (hERG) potassium channel (Q12809 whole entry, looked up): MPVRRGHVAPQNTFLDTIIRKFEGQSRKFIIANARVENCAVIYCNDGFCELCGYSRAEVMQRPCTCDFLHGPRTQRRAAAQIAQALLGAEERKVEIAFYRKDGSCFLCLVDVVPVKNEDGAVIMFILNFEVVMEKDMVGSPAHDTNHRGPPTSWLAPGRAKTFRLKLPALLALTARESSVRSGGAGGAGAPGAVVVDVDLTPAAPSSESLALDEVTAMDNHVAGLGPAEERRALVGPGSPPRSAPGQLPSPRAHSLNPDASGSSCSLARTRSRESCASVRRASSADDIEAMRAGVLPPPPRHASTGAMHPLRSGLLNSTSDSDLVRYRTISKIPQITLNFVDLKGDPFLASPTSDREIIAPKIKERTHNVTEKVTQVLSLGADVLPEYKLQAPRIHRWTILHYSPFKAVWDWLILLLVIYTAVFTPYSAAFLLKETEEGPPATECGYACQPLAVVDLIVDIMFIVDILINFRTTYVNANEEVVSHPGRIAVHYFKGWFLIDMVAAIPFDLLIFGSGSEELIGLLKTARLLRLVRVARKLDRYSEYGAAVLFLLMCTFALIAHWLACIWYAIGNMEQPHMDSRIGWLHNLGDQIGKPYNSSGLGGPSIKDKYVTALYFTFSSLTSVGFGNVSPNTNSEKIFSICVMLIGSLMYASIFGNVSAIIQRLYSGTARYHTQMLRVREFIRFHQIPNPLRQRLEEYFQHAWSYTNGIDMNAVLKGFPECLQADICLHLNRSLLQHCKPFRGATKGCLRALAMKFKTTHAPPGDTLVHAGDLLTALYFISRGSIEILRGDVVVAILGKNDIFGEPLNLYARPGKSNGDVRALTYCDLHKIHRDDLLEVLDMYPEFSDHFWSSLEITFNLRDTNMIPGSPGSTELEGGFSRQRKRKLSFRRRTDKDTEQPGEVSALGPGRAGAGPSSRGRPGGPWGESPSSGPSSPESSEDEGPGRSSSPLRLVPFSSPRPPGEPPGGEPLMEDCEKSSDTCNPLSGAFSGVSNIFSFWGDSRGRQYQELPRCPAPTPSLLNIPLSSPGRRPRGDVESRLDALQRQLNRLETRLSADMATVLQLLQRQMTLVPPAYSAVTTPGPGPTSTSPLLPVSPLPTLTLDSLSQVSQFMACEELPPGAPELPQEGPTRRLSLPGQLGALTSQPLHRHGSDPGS
In the case of `CCOC(=O)N1CCC(NC(=O)CCc2cn(C)c3ccccc23)CC1`, the “hERG current change (%, negative = inhibition) at 1uM” value is -8.18%.
Then `COc1ccc(N(C)C(=O)CCC(=O)Nc2ccc3nc(N4CCOCC4)cc(C)c3c2)c(OC)c1`, with 0.874%.
Then `Cn1c(=O)c2c(nc(NCCNC(=O)c3ccco3)n2Cc2ccc(F)cc2)n(C)c1=O`, with 6.86%; and `CCOC(=O)c1c(CN2CCCCC2)n(C)c2cc(Br)c(OC)cc12`, with 9.14%.
As for `O=c1c(/C=N/O)coc2ccc(Cl)cc12`, the figure is 16.3%; as for `C=CCn1c(=O)[nH]c2cc(C(=O)N3CCN(c4cccc(Cl)c4)CC3)ccc2c1=O`, -0.995%; as for `Cc1cc(N/N=C/c2c(O)ccc3ccccc23)nc(-c2ccccc2O)n1`, -5.67%.
`O=C(NNS(=O)(=O)c1ccccc1F)c1sccc1-n1cccc1`: the “hERG current change (%, negative = inhibition) at 1uM” value came to 6.96%.
As for `C/C(=N\Nc1ccccc1)c1c(O)n(C)c(=O)n(C)c1=O`, the “hERG current change (%, negative = inhibition) at 1uM” value is given as 8.67%.
Take `Cc1ccc(-c2nnc(SCC(=O)n3c4c(c5ccccc53)CCCC4)o2)cc1`: the “hERG current change (%, negative = inhibition) at 1uM” value is recorded as 7.07%.
With `COc1ccc(/C=N/n2c(SC)nnc(C(C)(C)C)c2=O)cc1`, the “hERG current change (%, negative = inhibition) at 1uM” value is on record as 15%.
In the case of `CC1(C)CC(=O)C=C(Nc2ccccc2NC(=O)c2cnccn2)C1`, the “hERG current change (%, negative = inhibition) at 1uM” value is given as -46.7%.
For the compound `Cc1ccc(NC(=O)C2OCCc3ccccc32)cc1` (centres unmarked), the “hERG current change (%, negative = inhibition) at 1uM” value came to 9.81%.
For the compound `CCCn1c(=N)n(CC(O)COc2cccc(C)c2)c2ccccc21.Cl` (centres unmarked), the “hERG current change (%, negative = inhibition) at 1uM” value is listed as -60%.
`CCn1nc(C)c(CN2CCC(C(=O)Nc3cccc(-c4cccc(F)c4)c3)CC2)c1C`: the “hERG current change (%, negative = inhibition) at 1uM” value is given as -6.47%.
As for `Br.O=C(CN1C2=NCCN2c2ccccc21)c1ccc(Br)cc1`, the figure is -28.4%; as for `Cc1ccc(Cl)cc1-n1c(SCC(=O)NCCC2=CCCCC2)nc2n[nH]c(C)c2c1=N`, 1.08%.
Consider `CCOC(=O)Cc1csc(NC(=O)COc2cccc(C)c2)n1`, for which the “hERG current change (%, negative = inhibition) at 1uM” value turned out to be 15.5%.
`CCOC(=O)c1c(C)[nH]c(C(=O)COc2ccc3c(c2)OCO3)c1C`: the “hERG current change (%, negative = inhibition) at 1uM” value amounted to 6.04%.
In the case of `CCN(CC)S(=O)(=O)c1cccc(C(=O)N/N=C/c2ccc(OC)c(O)c2)c1`, the “hERG current change (%, negative = inhibition) at 1uM” value was found to be 2.17%.
Turning to `O=C(O)c1ccc(/C=N/N2CCN(C3c4ccccc4-c4ccccc43)CC2)cc1`, the “hERG current change (%, negative = inhibition) at 1uM” value was 15.6%.
On to `Nc1nc2ccccc2cc1-c1cccs1`, for which the “hERG current change (%, negative = inhibition) at 1uM” value is 14.5%.
`c1coc(-c2ccnc3ncnn23)c1`: the “hERG current change (%, negative = inhibition) at 1uM” value is on record as 13.9%.
For the compound `CC(C)(C)NC(=O)NC(=O)CSc1ccc(S(=O)(=O)N2CCOCC2)cn1`, the “hERG current change (%, negative = inhibition) at 1uM” value is -1.99%.
On to `COc1ccccc1/C=N\NC(=O)c1ccc(COc2ccc(C)c(C)c2)o1`, for which the “hERG current change (%, negative = inhibition) at 1uM” value is listed as 7.09%.
With `CCC(=O)Nc1ccc2c(c1)ncn2C`, the “hERG current change (%, negative = inhibition) at 1uM” value was found to be 18%.
As for `CS(=O)(=O)N(CC(=O)N1CCOCC1)c1ccc(Cl)cc1`, the figure is 11.9%; as for `COc1ccc(OC)c(Nc2nc(-c3sc(NC(=O)c4ccccc4)nc3C)cs2)c1`, -9.63%.
As for `CN1CCN(c2ccc(NC(=O)c3ccco3)cc2Cl)CC1`, the figure is -2.05%; as for `CN(CC(=O)Nc1ccccc1Cl)C(=O)CCSc1ccc(F)cc1`, 4.34%; as for `COc1cccc(N2CCN(c3ccc4nnc(CCC(=O)Nc5ccc(F)cc5)n4n3)CC2)c1`, 11.1%.
As for `CCc1c(C)nc2ncnn2c1N1CCCC(C(=O)NCc2cccs2)C1` (centres unmarked), the figure is 12.3%; as for `Cc1ccc(C)c(NC(=O)C2=CCN(S(=O)(=O)c3ccc(F)cc3)CC2)c1`, 13.6%.
As for `O=C1NC(=O)N(c2ccccc2)C(=O)/C1=C\c1ccc([N+](=O)[O-])s1`, the “hERG current change (%, negative = inhibition) at 1uM” value amounted to 16.8%.
Then `Cc1ccc(-n2nc(C)c3c(C)c(CCC(=O)NC(C)c4ccccc4)c(C)nc32)cc1` (centres unmarked), with 12.2%.
`CCn1c(-c2csc3ccccc23)n[nH]c1=S`: the “hERG current change (%, negative = inhibition) at 1uM” value is given as 5.38%.
`O=C(O)c1cccnc1Br`: the “hERG current change (%, negative = inhibition) at 1uM” value came to 5.58%.
Take `NNC(=O)CNC(c1ccccc1)c1cc(Br)ccc1NC(=O)c1cccc(Cl)c1` (centres unmarked): the “hERG current change (%, negative = inhibition) at 1uM” value stood at 7.62%.
For the compound `CC(C)c1ccc(NC(=O)C2CSC3(C)CCC(=O)N23)cc1` (centres unmarked), the “hERG current change (%, negative = inhibition) at 1uM” value came to 10.9%.
`Cc1cc(C)c(C#N)c(N2CCN(c3ccccc3)CC2)n1`: the “hERG current change (%, negative = inhibition) at 1uM” value came out at 16.3%.
For the compound `COc1ccc(C(=O)Oc2cc3c4c(c2)C(C)=CC(C)(C)N4C(=O)C3=O)cc1OC`, the “hERG current change (%, negative = inhibition) at 1uM” value worked out at 15.1%.
Regarding `CCOC(=O)c1ccc(NC(=O)C2CCCN(c3cnccn3)C2)cc1` (centres unmarked), the “hERG current change (%, negative = inhibition) at 1uM” value is on record as -3.2%.
On to `COc1cccc(Nc2ccc(N3CCCCC3)cc2)c1OC`, for which the “hERG current change (%, negative = inhibition) at 1uM” value was 8.03%.
For `Cc1cccc(C(=O)N/N=C/c2ccccn2)c1`, the “hERG current change (%, negative = inhibition) at 1uM” value is 0.412%.
